Measurements published in PubChem BioAssay AID1671194 (National Center for Advancing Translational Sciences (NCATS), 2021).
About 240 (0.17%) of roughly 140,000 compounds were called active. This list was built around the results that the source calls inconclusive (neither active nor inactive); the mix of calls is not that of the screen. Calls come from the whole dose curve; as a rule, active = well fitted inhibition curve with a large enough effect; inconclusive = small, poorly fitted or top-dose-only effect; inactive = no such curve, though single readings can be large or run the other way. A potency beside an inconclusive call is a rough fit, not a confirmed value.

assay: Primary qHTS assay for inhibitors of alpha-synuclein gene (SNCA) expression; conditions: HEK-293 SNCA-luciferase knock-in, luminescence, 24 h; series mostly up to 57.2 µM; note: nearly all actives have a fitted effect of over 45% in size
Potency is the fitted concentration of half-maximal effect; tags give direction and shape of the fitted curve.

Potency, inconclusive:
Cc1cc(C)c([S+](=O)([O-])c2nnn3c2nc(N2CCCCC2)c2ccccc23)c(C)c1 39.8 µM [inhibitor, single point]
CN(C)C(=O)N1CCCC(C(=O)NCc2nc(C3CCCCC3)no2)C1 (stereo not drawn) 10 µM [inhibitor, partial curve, poor fit]
COc1ccc(OC)c(NC(=O)c2cnc(Nc3ccc(C)c(Cl)c3)c3ccccc23)c1 0.562 µM [inhibitor, partial curve, poor fit]
COc1ccc(-c2nc3c(c(=O)[nH]2)CCN(C(=O)Nc2cc(F)cc(F)c2)C3)cc1 17.8 µM [inhibitor, partial curve, poor fit]
CNC(=O)[C@@H]1CN(S(=O)(=O)c2cccc(Cl)c2)C[C@H]1C1CCN(C)CC1 39.8 µM [inhibitor, single point]
CC1=C[C@@H](CN2C(=O)C(C)=C(C)C2=O)[C@H](C(C)C)C[C@H]1Cc1nc2ccccc2[nH]1 22.4 µM [inhibitor, partial curve, poor fit]
O=C1CC(c2cc(F)cc(F)c2)c2cc3c(cc2N1)OCO3 (stereo not drawn) 39.8 µM [inhibitor, single point]
CCCCS(=O)(=O)c1oc(-c2cccs2)nc1S(=O)(=O)c1ccc(F)cc1 39.8 µM [inhibitor, single point]
Cc1cc(C)cc(C(=O)n2nc(C)c(S(=O)(=O)N3CCCCCC3)c2C)c1 1.58 µM [inhibitor, partial curve, poor fit]
CCOC(=O)CCC(=O)Nc1nnc2n1CCS2 39.8 µM [inhibitor, single point]
Oc1ccccc1CN1CCNc2cnc(Nc3ccccc3)cc2C1 56.2 µM [inhibitor, single point]
O=C(CCc1nc2ccc(Cl)cc2[nH]1)N1CCc2nc3cc(-c4ccccc4)[nH]n3c(=O)c2C1 39.8 µM [inhibitor, partial curve, poor fit]
Cc1ncsc1CN1CCCC(c2nc(-c3cccnc3)no2)CCNC(=O)CC1 (stereo not drawn) 12.6 µM [inhibitor, partial curve, poor fit]
Cc1cccc(-n2c(N)cc(=O)nc2SCC(=O)Nc2ccc(F)cc2)c1C 39.8 µM [inhibitor, single point]
CCOc1ccc(Cl)cc1CNCCCSc1nnnn1C 39.8 µM [inhibitor, single point]
Cc1ccc2c(n1)OC(COc1ccccc1)CN(Cc1cccc(F)c1)C2=O (stereo not drawn) 3.98 µM [inhibitor, partial curve, poor fit]
Cc1ccccc1CNC(=O)c1oc2c(c1C)-c1nn(Cc3ccc(Cl)cc3)cc1CC2 1.58 µM [inhibitor, partial curve, poor fit]
CCOc1ccccc1N1CCN(C(=O)CCn2ccn3nc4c(c3c2=O)CCCC4)CC1 2.51 µM [inhibitor, full curve]
CC1=C[C@@H](CN)[C@H](C(C)C)C[C@H]1Cc1nc2ccccc2[nH]1 2.24 µM [inhibitor, full curve, poor fit]
Fc1ccc(Nc2nc(SCc3cccc(Cl)c3)nc3ccccc23)cc1 31.6 µM [inhibitor, single point]
COc1ccc(NC(=O)c2nnn(CC(=O)Nc3c(C)cc(C)cc3C)c2N)cc1OC 31.6 µM [inhibitor, single point]
Cc1ccccc1C(=O)Nc1ccc([C@H]2OCC(=O)N(C)[C@@H]2CO)cc1 10 µM [inhibitor, single point]
CC(C)(Oc1nn(Cc2cccc(Cl)c2)c2ccccc12)C(=O)NCCN1CCOCC1 31.6 µM [inhibitor, partial curve, poor fit]
CN(C)C(=O)CNC(=O)c1cccc(-c2ccc(C(F)(F)F)cc2)c1 39.8 µM [inhibitor, single point]
COCC(=O)N[C@@H]1CN(Cc2cccc(OC)n2)CC[C@@H]1CO 39.8 µM [inhibitor, single point]
C=CCC1(CO)CCCN(C(=O)CCCn2nc(C)cc2C)C1 (stereo not drawn) 0.708 µM [inhibitor, partial curve, poor fit]
COC[C@@H]1[C@H](C(=O)N2CCc3ccccc32)CCC(=O)N1C 22.4 µM [inhibitor, single point]
O=C(Nc1ccc(F)cc1)[C@@H]1C[C@@H](c2cccc(C(F)(F)F)c2)N(CC2CCOCC2)C1 14.1 µM [inhibitor, single point]
CSc1nc(-c2ccccc2Cl)nc2c1Cc1c(CO)cnc(C)c1O2 17.8 µM [inhibitor, single point]
Cc1ccc(C(=O)N[C@@H]2C=C(C(=O)N[C@H](CC(C)C)C(N)=O)C[C@@H](O)[C@@H]2O)cc1 1.58 µM [inhibitor, full curve]
CCCOC(=O)N1CCCC(C(=O)Nc2ccccc2-c2ccc(OC)cc2)C1 (stereo not drawn) 11.2 µM [inhibitor, partial curve, poor fit]
Cc1cc(=O)n(CC(=O)Nc2ccc(C)c(C)c2)c(N2CCC(C)CC2)n1 39.8 µM [inhibitor, single point]
CCc1cc(-c2n[nH]c(C)c2-c2ccc3c(c2)OCCO3)c(O)cc1O 7.64 µM [inhibitor, full curve, poor fit]
COc1ccc(-c2nc(C3CC3)nc3c2CCN([S+](=O)([O-])c2c(C)noc2C)CC3)cc1 7.08 µM [inhibitor, single point]
CCNC(=O)N1C[C@@H](F)[C@@H](OCc2nc3ccc(F)cc3[nH]2)C1 12.6 µM [inhibitor, single point]
Cc1ccc(NS(=O)(=O)c2ccc(-c3cnc(C4CC4)o3)cc2)cc1N(C)C 22.4 µM [inhibitor, single point]
O=C1CSC2(C(=O)N(Cc3ccccc3F)c3ccccc32)N1c1cccc(C(F)(F)F)c1 (stereo not drawn) 31.6 µM [inhibitor, single point]
CN1CCC(=C2c3ccccc3CCc3sccc32)CC1 13.6 µM [inhibitor, partial curve]
CCc1ccccc1NC(=O)Cn1cccc1-c1nc(-c2ccc(OC)c(F)c2)no1 39.8 µM [inhibitor, single point]
Cn1ncc2c(C(=O)NCc3ccc(F)c(F)c3)cc(-c3ccsc3)nc21 39.8 µM [inhibitor, single point]
Cc1ccc(NC(=O)CN2C(=O)COc3ccc(S(=O)(=O)N4CCCCCC4)cc32)cc1Cl 28.2 µM [inhibitor, partial curve, poor fit]
COc1ccc(C2(C(=O)N3CCCC(c4[nH]ccc4C(N)=O)C3)CC2)cc1 (stereo not drawn) 17.8 µM [inhibitor, partial curve, poor fit]
CCOC(=O)c1c(Nc2ccc(O)cc2)nnc(-c2ccccc2)c1-c1ccccc1 2 µM [inhibitor, partial curve, poor fit]
CC1CCCN(CCCNC(=O)c2ccc3c(c2)N(Cc2cccc(Cl)c2)C(=O)c2ccccc2S3(=O)=O)C1 (stereo not drawn) 39.8 µM [inhibitor, single point]
O=C(Nc1ccc(OC(F)(F)F)cc1)C(Cc1ccccc1)NS(=O)(=O)c1cccc2nsnc12 (stereo not drawn) 39.8 µM [inhibitor, partial curve, poor fit]

Potency, inactive:
CC(C)c1noc(-c2cccn3c(CNC(=O)Cc4cccc(F)c4)nnc23)n1
CCOC(=O)C1CCCN(C(=O)c2cn3cc(-c4ccccc4)sc3n2)C1 (stereo not drawn)
Cc1nc(C(=O)N2CCOc3c(O)cc(-c4cccc(Cl)c4)cc3C2)cs1
COc1cc(-c2onc(C)c2C(=O)NCCCOC(C)C)cc(OC)c1OC
CCC1(C(=O)NCc2ccc(Cl)cc2)CCCCC(=O)N1 (stereo not drawn)
Cc1ccccc1Cc1c(C)nc2c(C(=O)NCCc3noc(-c4cccnc4)n3)cnn2c1C
COC(=O)CNC(=O)C1CCCN1C(=O)c1cccc(-c2ccccn2)c1 (stereo not drawn)
c1cc(OCCN2CCCCC2)cc(-c2n[nH]c3ccc(-c4ncn[nH]4)cc23)c1
CC(Cn1cncn1)C(=O)N1CCc2onc(-c3ccc(F)c(F)c3)c2C1 (stereo not drawn)
CCOc1ccc(-n2nc(CO)c(C(=O)NCc3ccccn3)n2)cc1
CCCc1ccc(S(=O)(=O)N(C)CC2CCOCC2)cc1
Cc1ccc(NC(=O)Cn2ccn3nc4c(c3c2=O)CC(C)CC4)cc1 (stereo not drawn)
O=C(Cc1c[nH]c2ncc(-c3ccc(F)cc3)cc12)N1CCOCC1
CCOC(=O)c1nn(Cc2ccc(OC)cc2)c2c1CN(C(=O)c1ccc3nc[nH]c3c1)CC2
COc1ccc(OC)c(CN2CCN(S(=O)(=O)c3ccccc3)CC2)c1
Cc1ccc(-n2nc(-c3c(C)nc4scc(CC(=O)N5CCCC5)n4c3=O)cc2C)cc1
O=C(NCCc1ccccc1F)c1ccc2nnc(-c3cccnc3)n2c1

Potency, active:
O=C(Nc1ccc(C(=O)N2CCCCC2)cc1)c1nsc2ccccc12 10 µM
